A compilation of properties of binary mixtures (doi:10.1016/j.molliq.2016.06.018)
The densities may have been worked out from excess volumes.

Assay: xn = mol fraction of the nth substance listed
Conditions: 100 kPa

CCCC[n+]1ccn(C)c1.O=S(=O)([N-]S(=O)(=O)C(F)(F)F)C(F)(F)F + CCCCCCCCN1CCCC1=O
mass density (298.15 K, x2 = 0): 1433.7 kg/m3
mass density (303.15 K, x2 = 0): 1428.9 kg/m3
mass density (308.15 K, x2 = 0): 1424.1 kg/m3
mass density (313.15 K, x2 = 0): 1419.4 kg/m3
mass density (318.15 K, x2 = 0): 1414.6 kg/m3
mass density (323.15 K, x2 = 0): 1409.9 kg/m3

CCCCCCCCN1CCCC1=O + CCCC[n+]1ccn(C)c1.O=S(=O)([N-]S(=O)(=O)C(F)(F)F)C(F)(F)F
mass density (298.15 K, x1 = 0.1125): 1389.1 kg/m3
mass density (298.15 K, x1 = 0.2205): 1343.8 kg/m3
mass density (298.15 K, x1 = 0.3048): 1306.6 kg/m3
mass density (298.15 K, x1 = 0.3915): 1266.7 kg/m3
mass density (298.15 K, x1 = 0.5011): 1213.5 kg/m3
mass density (298.15 K, x1 = 0.5983): 1163.6 kg/m3
mass density (298.15 K, x1 = 0.7076): 1103.9 kg/m3
mass density (298.15 K, x1 = 0.7976): 1051.3 kg/m3
mass density (298.15 K, x1 = 0.8911): 992.8 kg/m3
mass density (298.15 K, x1 = 1): 918.5 kg/m3
mass density (303.15 K, x1 = 0.2205): 1339.2 kg/m3
mass density (303.15 K, x1 = 0.3048): 1302.1 kg/m3
mass density (303.15 K, x1 = 0.5011): 1209.2 kg/m3
mass density (303.15 K, x1 = 0.5983): 1159.4 kg/m3
mass density (303.15 K, x1 = 0.7976): 1047.4 kg/m3
mass density (303.15 K, x1 = 0.8911): 989 kg/m3
mass density (303.15 K, x1 = 1): 914.8 kg/m3
mass density (308.15 K, x1 = 0.1125): 1379.8 kg/m3
mass density (308.15 K, x1 = 0.2205): 1334.7 kg/m3
mass density (308.15 K, x1 = 0.3048): 1297.7 kg/m3
mass density (308.15 K, x1 = 0.5983): 1155.3 kg/m3
mass density (308.15 K, x1 = 0.7076): 1095.9 kg/m3
mass density (308.15 K, x1 = 0.7976): 1043.5 kg/m3
mass density (308.15 K, x1 = 0.8911): 985.2 kg/m3
mass density (313.15 K, x1 = 0.1125): 1375.2 kg/m3
mass density (313.15 K, x1 = 0.3048): 1293.2 kg/m3
mass density (313.15 K, x1 = 0.3915): 1253.5 kg/m3
mass density (313.15 K, x1 = 0.5011): 1200.7 kg/m3
mass density (313.15 K, x1 = 0.5983): 1151.2 kg/m3
mass density (313.15 K, x1 = 0.7076): 1091.9 kg/m3
mass density (313.15 K, x1 = 0.7976): 1039.6 kg/m3
mass density (313.15 K, x1 = 0.8911): 981.4 kg/m3
mass density (313.15 K, x1 = 1): 907.5 kg/m3
mass density (318.15 K, x1 = 0.1125): 1370.5 kg/m3
mass density (318.15 K, x1 = 0.2205): 1325.6 kg/m3
mass density (318.15 K, x1 = 0.3048): 1288.8 kg/m3
mass density (318.15 K, x1 = 0.3915): 1249.2 kg/m3
mass density (318.15 K, x1 = 0.5011): 1196.5 kg/m3
mass density (318.15 K, x1 = 0.5983): 1147.1 kg/m3
mass density (318.15 K, x1 = 0.7076): 1087.9 kg/m3
mass density (318.15 K, x1 = 0.7976): 1035.8 kg/m3
mass density (318.15 K, x1 = 0.8911): 977.6 kg/m3
mass density (318.15 K, x1 = 1): 903.8 kg/m3
mass density (323.15 K, x1 = 0.1125): 1365.9 kg/m3
mass density (323.15 K, x1 = 0.2205): 1321.1 kg/m3
mass density (323.15 K, x1 = 0.3048): 1284.3 kg/m3
mass density (323.15 K, x1 = 0.3915): 1244.8 kg/m3
mass density (323.15 K, x1 = 0.5011): 1192.2 kg/m3
mass density (323.15 K, x1 = 0.5983): 1143 kg/m3
mass density (323.15 K, x1 = 0.7076): 1084 kg/m3
mass density (323.15 K, x1 = 0.7976): 1031.9 kg/m3
mass density (323.15 K, x1 = 1): 900.2 kg/m3
